# Measured values: PubChem BioAssay AID686978 (National Center for Advancing Translational Sciences (NCATS), 2013)
# In all, about 420,000 compounds went through this assay and about 64,000 (15%) were called active. Inconclusive results, whose numbers are uncertain, are shown with a selection of clear calls. Calls come from the whole dose curve; as a rule, active = well fitted inhibition curve with a large enough effect; inconclusive = small, poorly fitted or top-dose-only effect; inactive = flat fitted curve, though single readings scatter. Potencies of inconclusive entries are left out as doubtful fits.
# Experiment: qHTS for Inhibitors of human tyrosyl-DNA phosphodiesterase 1 (TDP1): qHTS in cells in absence of CPT; note: nearly all actives have a fitted effect of over 55% in size
# Details: DT40 Tdp1-/- hTDP1 cells, no CPT, ATP luminescence, 48 h; activity change, negative = growth inhibition: at 46.2 µM (top of the series)
# In short: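 DT40 Tdp1-/-;hTDP1 cells, no CPT (DMSO vehicle only), 400 cells/well; compounds pin-transferred; ≥48 hr, 37 °C; CellTiter-Glo 30 min RT dark, luminescence read.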
# % is set by controls: 0 for no effect and ±100 for the full control effect; potency is the fitted concentration of half-maximal effect; tags give direction and shape of the fitted curve.
Structure (SMILES),Potency,"activity change, negative = growth inhibition"
CCOc1ccccc1C(=O)N1CCC(n2nnc3cc(C(F)(F)F)ccc32)CC1,"inconclusive [inhibitor, single point]",
Cc1ccc2oc(=O)c3cnn(CC(=O)N4CCN(c5cccc(Cl)c5)CC4)c3c2c1,"inconclusive [inhibitor, single point]",
COc1ccccc1-c1nnc(NC(=O)c2ccc(S(=O)(=O)N(C)Cc3ccccc3)cc2)o1,active: 9.2 µM,
Cc1cc(CN2CCN(CCC#N)CC2)c(O)c(C2(C)CCCCC2)c1,active: 20.6 µM,
Clc1cccc(COn2c(-c3ccc(Cl)cc3Cl)nc3ncccc32)c1,active: 20.6 µM,
COc1cc(C(=O)NC(c2ccccc2)c2ccccc2)cc(Cl)c1OC,inactive,
O=C(NC1CCCCCCC1)c1cc(-c2ccccn2)nc2ccccc12,active: 18.4 µM,
COC(=O)Cn1c(=NC(=O)c2ccc(OC)c(OC)c2)sc2cc(OC)ccc21,"inconclusive [inhibitor, full curve, poor fit]",
Cc1ccc(NC(=O)c2nc(S(=O)(=O)Cc3ccc(F)cc3)ncc2Cl)cc1C,active: 2.31 µM,
COc1ccc(C(=O)c2c3ccc(OC)cc3[n+]([O-])n2Cc2ccc(C(N)=O)cc2)cc1,"inconclusive [inhibitor, single point]",
COc1ccc(-c2ccnc3nc(Sc4ncc(C(F)(F)F)cc4Cl)nn23)cc1,inactive,
CCN1CCC(NC(=O)Nc2ccccc2C(=O)OC)CC1,inactive,
CCC1CCCCN1C(=O)c1cc(COc2ccc(-n3cncn3)cc2)on1 (stereo not drawn),active: 16.4 µM,
O=C(Cn1nnc(-c2cccc(C(F)(F)F)c2)n1)NC1CCCC1,"inconclusive [inhibitor, single point]",
COc1ccc(-c2cc(-c3cccs3)nc3sc(C#N)c(N)c23)cc1,"inconclusive [inhibitor, single point]",
Clc1ccccc1-c1nc(-c2ccccc2)n[nH]1,"inconclusive [inhibitor, single point]",
O=C(CO/N=C/c1ccccc1OC(F)F)NC1CCCC1,inactive,
CCCn1c(=O)c2c(nc3n2CCS3)n(C)c1=O,inactive,
COc1ccc(-c2nc(N)n(C(=O)c3ccccc3Cl)n2)cc1,"inconclusive [inhibitor, partial curve]",
CC1(C)CC(=O)C(/C=N/n2c(C(F)(F)F)nc3ccccc3c2=O)=C(O)C1,"inconclusive [inhibitor, single point]",
Nc1ccc(-c2nc3cc(N)ccc3o2)cc1,inactive,
CCN(CC)c1ccc(C(=O)n2cnc3ccccc32)cc1,"inconclusive [inhibitor, single point]",
CSc1nc(O)c(/C=C2\C=Nc3ccccc32)[nH]1,"inconclusive [inhibitor, single point]",
Cc1c(Cl)cccc1NC(=S)NCCC(C)C,"inconclusive [inhibitor, single point]",
CCn1c2ccccc2c2nnc(SCC(=O)N3CC(C)OC(C)C3)nc21 (stereo not drawn),active: 16.4 µM,

Structure (SMILES),Potency,"activity change, negative = growth inhibition"
CC(=O)Nc1nnc(-c2ccc3c(c2)CCCC3)o1,,inconclusive: -33.7% [inhibitor]
Cc1ccc(NC(=O)c2sc(Cl)nc2-c2ccccc2)cc1,"inconclusive [inhibitor, single point]",
COc1cccc(-c2ccnc(-n3ncc(C(=O)NCc4cccnc4)c3C3CC3)n2)c1,"inconclusive [inhibitor, single point]",
CCOc1ccc(C(=O)n2cc(C(=O)OC)c3ccccc32)cc1,active: 13 µM,
COCCNC(=O)C1(C)Cc2c(-c3cccc(C(F)(F)F)c3)ccnc2O1 (stereo not drawn),active: 9.2 µM,
Cc1cc(N2CCN(C)CC2)nc2ccc(NC(=S)N3CCN(c4cccc(Cl)c4)CC3)cc12,active: 2.59 µM,
CCOC(=O)c1ccc(-n2c(O)c(/C=N/NC(=O)C3COc4ccccc4O3)c3ccccc3c2=O)cc1 (stereo not drawn),"inconclusive [inhibitor, single point]",
CC(C)CCc1noc(CN(C)CC2CCN(Cc3ccccc3)CC2)n1,"inconclusive [inhibitor, single point]",
CCOc1ccc(NC(=O)CN(C)CC(=O)Nc2cc(Cl)ccc2C#N)cc1OCC,,inconclusive: -36% [inhibitor]
CCCn1nc(NC(C)=O)c2cc3cccc(C)c3nc21,"inconclusive [inhibitor, single point]",
O=C(c1cccs1)N1CCCc2cc(NS(=O)(=O)c3cc(F)ccc3F)ccc21,"inconclusive [inhibitor, single point]",
Cc1ccc(OCC(=O)NCC(=O)OCc2cc(=O)n3nc(CC(C)C)sc3n2)cc1,inactive,
N#Cc1c(Cl)nc2c(c1C#N)CCCC2,active: 18.4 µM,
CN(C)c1ccc(/C=N/n2c(-c3cccnc3)n[nH]c2=S)cc1,inactive,
CC(=O)c1cccc(NC(=O)CCn2nc(C)c(S(=O)(=O)N3CCCCC3)c2C)c1,"inconclusive [inhibitor, single point]",
CNc1nc(-c2ccc(C(=O)N(C)C)cc2)nc2ccccc12,inactive,
O=c1oc2ccccc2c(N2CCC(c3ccccc3)CC2)c1[N+](=O)[O-],"inconclusive [inhibitor, single point]",
Cc1cc(Cl)ccc1C(O)c1ncc(-c2ccc(Cl)cc2)[nH]1 (stereo not drawn),"inconclusive [inhibitor, single point]",
c1ccc(-c2nnc(-c3ccccc3)c(-c3c[nH]c4ccccc34)n2)cc1,"inconclusive [inhibitor, single point]",
COC(=O)c1c(NS(=O)(=O)c2ccccc2)csc1C,"inconclusive [inhibitor, single point]",
C=CCSc1nnc(-c2cc(C(C)(C)C)nn2Cc2ccc(F)cc2)n1C,"inconclusive [inhibitor, single point]",
O=C(/C=C/c1ccc(F)cc1)NC(=S)NC1CCCCC1,"inconclusive [inhibitor, partial curve]",
NC(=O)c1ccccc1N/C=C/C(=O)c1ccccc1,inactive,
Cc1cccc(CNC(=O)CCCn2nc(C)c3c(C)n(-c4ccccc4)nc3c2=O)c1,"inconclusive [inhibitor, partial curve]",
COc1cc(/C=N\NC(=O)C2C(=O)NCC2c2ccccc2)cc(OC)c1O (stereo not drawn),inactive,

Structure (SMILES),Potency,"activity change, negative = growth inhibition"
NC(COCc1ccccc1)c1csc(NC(=O)Nc2cccc(C(F)(F)F)c2)n1 (stereo not drawn),"inconclusive [inhibitor, single point]",
Cc1cc(C)nc(N2CCC(C(=O)NCc3cccs3)CC2)n1,inactive,
Cc1ccc(S(=O)(=O)Oc2ccc(C3C4=C(CCCC4=O)OC4=C3C(=O)CCC4)cc2)cc1,active: 16.4 µM,
C=CCSC1=C(C#N)C(c2ccc(C(C)C)cc2)CC(=O)N1 (stereo not drawn),"inconclusive [inhibitor, single point]",
Cc1nc(-c2cc(-c3nc(-c4ccc(C(F)(F)F)cc4)no3)no2)cs1,"inconclusive [inhibitor, single point]",
CCCc1nc(NCc2ccccn2)c2nnn(Cc3ccccc3F)c2n1,"inconclusive [inhibitor, single point]",
COc1cccc(CNC(=O)Cn2nc(C)c3sc4ccccc4c3c2=O)c1OC,inactive,
COc1ccc(NC(=O)c2cc(-c3ccccc3F)no2)cc1,"inconclusive [inhibitor, single point]",
CCCNC(=O)c1c(CSc2ccccc2)noc1C(=O)NCc1ccccc1,"inconclusive [inhibitor, single point]",
CS(=O)(=O)c1ccc2nc(NC(=O)c3cccc([N+](=O)[O-])c3)sc2c1,active: 18.4 µM,
O=C(Oc1c(Cl)cc(Cl)c2cccnc12)c1cccs1,"inconclusive [inhibitor, single point]",
CCOc1ccc(C2=CSC3=NCCN23)cc1Cl,"inconclusive [inhibitor, partial curve]",
CCCCC(C)(O)C/C=C/[C@H]1[C@H](O)CC(=O)[C@@H]1CCCCCCC(=O)O (stereo partly drawn),,inactive: 12.2% [at 4.12 µM]
CN(CCOc1ccccc1)C(=O)C1CCC(=O)N(CCN2CCOCC2)C1 (stereo not drawn),inactive,
O=C(N/N=C/c1ccc(Br)s1)c1c[nH]c2ccccc12,"inconclusive [inhibitor, single point]",
CCOc1ccc(S(=O)(=O)N2CCOCC2)cc1NC(=O)CSCc1c(C)noc1C,inactive,
Cc1ccc2c(=O)cc(CSc3ncn[nH]3)[nH]c2c1C,"inconclusive [inhibitor, single point]",
CCOC(=O)N1CCN(C(=O)CSc2nc(CC)nc3c2c(=O)n(C)c(=O)n3C)CC1,"inconclusive [inhibitor, single point]",
Cn1cc(-c2cccc3nncn23)cn1,inactive,
O=C(C1CCC1)N1CCN(S(=O)(=O)c2ccc(F)cc2)CC1,inactive,
Nc1cc(N)nc(SCC(=O)NCC(=O)Nc2ccc(F)c(F)c2F)n1,inactive,
O=C(CNC(=O)c1ccc([N+](=O)[O-])cc1)N/N=C\c1ccc(OC(=O)c2ccccc2)cc1,"inconclusive [inhibitor, single point]",
C=Cc1ccc(Cn2c(C)c(CNCCc3ccc(OCC)cc3)c(C(=O)O)c2C)cc1,"inconclusive [inhibitor, single point]",
